According to publication PMC4466884:
No constants are given. Whether binding was seen depends on the method and setting. For some of these results: Binding seen in cells or lysates may run through a third protein. Some binding calls cover weakened binding; strength is not graded here. Tags and fused reporters may be left off the sequences shown.

Sequences of proteins named here, by UniProt entry; tags and fusion partners are left off. Residues count along the entry.
UniProt P02340, residues 72-390: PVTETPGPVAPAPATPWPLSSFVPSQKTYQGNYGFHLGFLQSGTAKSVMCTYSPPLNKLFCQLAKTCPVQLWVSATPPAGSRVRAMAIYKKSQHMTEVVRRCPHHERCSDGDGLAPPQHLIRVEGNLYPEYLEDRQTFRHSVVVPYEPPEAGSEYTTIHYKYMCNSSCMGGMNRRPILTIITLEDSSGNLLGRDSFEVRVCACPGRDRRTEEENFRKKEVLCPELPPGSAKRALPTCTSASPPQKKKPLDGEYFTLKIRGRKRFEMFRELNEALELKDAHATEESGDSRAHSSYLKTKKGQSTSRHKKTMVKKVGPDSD

Assays:
[1] = molecular target: T1, yeast Tgs1p, full-length (aa1-315), yeast two-hybrid fusion (S. cerevisiae) (UniProt Q12052); experiment: two-hybrid; GAL4-BD baits (pGBKT7) and GAL4-AD preys (pGADT7) co-transformed into reporter strain PJ69-4A; 10-fold serial dilutions spotted on SDC-Trp-Leu and SDC-Trp-Leu-His (HIS3 reporter), 30 °C
T1 sequence: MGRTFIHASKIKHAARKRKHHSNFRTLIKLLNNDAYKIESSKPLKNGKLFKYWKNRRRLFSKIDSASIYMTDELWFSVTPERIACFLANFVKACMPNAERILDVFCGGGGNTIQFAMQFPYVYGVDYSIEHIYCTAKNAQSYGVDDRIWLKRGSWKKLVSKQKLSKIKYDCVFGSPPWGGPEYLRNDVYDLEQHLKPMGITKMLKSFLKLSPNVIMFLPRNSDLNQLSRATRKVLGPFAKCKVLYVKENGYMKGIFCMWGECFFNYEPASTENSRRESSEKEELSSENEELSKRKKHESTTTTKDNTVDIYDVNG

[2] = molecular target: murine p53 aa 72-390, GAL4-BD fusion (pVA3-1) (murine) (UniProt P02340); experiment: as above
[3] = molecular target: T2, Swm2p (synthetic with Mud2), yeast two-hybrid fusion (S. cerevisiae) (UniProt P40342); experiment: as above
T2 sequence: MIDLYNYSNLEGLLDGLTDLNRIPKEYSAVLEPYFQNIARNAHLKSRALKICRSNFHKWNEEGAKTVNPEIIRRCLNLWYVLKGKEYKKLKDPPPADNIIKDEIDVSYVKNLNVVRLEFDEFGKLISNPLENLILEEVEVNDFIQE

[4] = molecular target: yeast Tgs1p lacking the first 10 amino acids (Tgs1Δaa1-10), yeast two-hybrid fusion (S. cerevisiae) (UniProt Q12052); experiment: as above
[5] = molecular target: yeast Tgs1p lacking the first 40 amino acids (Tgs1Δaa1-40), yeast two-hybrid fusion (S. cerevisiae) (UniProt Q12052); experiment: as above
[6] = molecular target: yeast Tgs1p co-expressed in E. coli (6His-GST-yTgs1 and 6His-yTgs1p) (S. cerevisiae) (UniProt Q12052); experiment: pull-down; GST-Tgs1p or GST (pRSFDuet-1) co-expressed with Tgs1p (pETDuet-1) in E. coli BL21 (DE3); cleared lysate in 150 mM NaCl, 50 mM Tris-HCl pH 7.4 on Glutathione Sepharose; Coomassie gel, proteins determined by mass spectrometry

B1: yeast Tgs1p, full-length (aa1-315), yeast two-hybrid fusion (protein, UniProt Q12052 1-315)
chain: T1 sequence
binding [1]: binds | binding [2]: no binding | binding [3]: binds

B2: yeast Tgs1p fragment aa1-100, GAL4-AD fusion (domain or fragment, UniProt Q12052 1-100)
chain: MGRTFIHASKIKHAARKRKHHSNFRTLIKLLNNDAYKIESSKPLKNGKLFKYWKNRRRLFSKIDSASIYMTDELWFSVTPERIACFLANFVKACMPNAER
binding [1]: binds

B3: yeast Tgs1p lacking the first 10 amino acids (Tgs1Δaa1-10), yeast two-hybrid fusion (domain or fragment, UniProt Q12052 11-315)
chain: IKHAARKRKHHSNFRTLIKLLNNDAYKIESSKPLKNGKLFKYWKNRRRLFSKIDSASIYMTDELWFSVTPERIACFLANFVKACMPNAERILDVFCGGGGNTIQFAMQFPYVYGVDYSIEHIYCTAKNAQSYGVDDRIWLKRGSWKKLVSKQKLSKIKYDCVFGSPPWGGPEYLRNDVYDLEQHLKPMGITKMLKSFLKLSPNVIMFLPRNSDLNQLSRATRKVLGPFAKCKVLYVKENGYMKGIFCMWGECFFNYEPASTENSRRESSEKEELSSENEELSKRKKHESTTTTKDNTVDIYDVNG
binding [1]: binds weakly | binding [4]: no binding | binding [3]: binds

B4: yeast Tgs1p lacking the first 40 amino acids (Tgs1Δaa1-40), yeast two-hybrid fusion (domain or fragment, UniProt Q12052 41-315)
chain: SKPLKNGKLFKYWKNRRRLFSKIDSASIYMTDELWFSVTPERIACFLANFVKACMPNAERILDVFCGGGGNTIQFAMQFPYVYGVDYSIEHIYCTAKNAQSYGVDDRIWLKRGSWKKLVSKQKLSKIKYDCVFGSPPWGGPEYLRNDVYDLEQHLKPMGITKMLKSFLKLSPNVIMFLPRNSDLNQLSRATRKVLGPFAKCKVLYVKENGYMKGIFCMWGECFFNYEPASTENSRRESSEKEELSSENEELSKRKKHESTTTTKDNTVDIYDVNG
binding [5]: no binding | binding [3]: binds

B5: yeast Tgs1p co-expressed in E. coli (6His-GST-yTgs1 and 6His-yTgs1p) (protein, UniProt Q12052 1-315)
chain: T1 sequence
binding [6]: binds

B6: Swm2p (synthetic with Mud2), yeast two-hybrid fusion (protein, UniProt P40342 1-146)
chain: T2 sequence
binding [3]: no binding

B7: human Tgs1p truncation aa631-853, yeast two-hybrid fusion (domain or fragment, UniProt Q96RS0 631-853)
chain: VNGLPPEIAAVPELAKYWAQRYRLFSRFDDGIKLDREGWFSVTPEKIAEHIAGRVSQSFKCDVVVDAFCGVGGNTIQFALTGMRVIAIDIDPVKIALARNNAEVYGIADKIEFICGDFLLLASFLKADVVFLSPPWGGPDYATAETFDIRTMMSPDGFEIFRLSKKITNNIVYFLPRNADIDQVASLAGPGGQVEIEQNFLNNKLKTITAYFGDLIRRPASET
binding [3]: no binding

B8: yeast Tgs1p fragment aa1-49, GAL4-AD fusion (domain or fragment, UniProt Q12052 1-49)
chain: MGRTFIHASKIKHAARKRKHHSNFRTLIKLLNNDAYKIESSKPLKNGKL
binding [1]: no binding

B9: yeast Tgs1p MTase domain (aa50-262), GAL4-AD fusion (domain or fragment, UniProt Q12052 50-262)
chain: FKYWKNRRRLFSKIDSASIYMTDELWFSVTPERIACFLANFVKACMPNAERILDVFCGGGGNTIQFAMQFPYVYGVDYSIEHIYCTAKNAQSYGVDDRIWLKRGSWKKLVSKQKLSKIKYDCVFGSPPWGGPEYLRNDVYDLEQHLKPMGITKMLKSFLKLSPNVIMFLPRNSDLNQLSRATRKVLGPFAKCKVLYVKENGYMKGIFCMWGEC
binding [1]: no binding

B10: yeast Tgs1p fragment aa263-315, GAL4-AD fusion (domain or fragment, UniProt Q12052 263-315)
chain: FFNYEPASTENSRRESSEKEELSSENEELSKRKKHESTTTTKDNTVDIYDVNG
binding [1]: no binding

B11: yeast Tgs1p C-terminus fragment aa200-315, GAL4-AD fusion (domain or fragment, UniProt Q12052 200-315)
chain: ITKMLKSFLKLSPNVIMFLPRNSDLNQLSRATRKVLGPFAKCKVLYVKENGYMKGIFCMWGECFFNYEPASTENSRRESSEKEELSSENEELSKRKKHESTTTTKDNTVDIYDVNG
binding [1]: no binding
